Reference: the supplement of paper PMC4967469
IC50 is the fitted dose that halves viability relative to control wells, and lower means more sensitive; a fit beyond the top or the lowest dose is shown as a bound at that dose. AUC is the area under the same curve over the 256-fold range up to the top dose, as a fraction; it is 1 without any effect and falls as sensitivity rises. For part of these data: A top dose marked as inferred was calculated from the reported fits. For part of these data: Where an entry number is given, a second screen of the drug exists; the two often differ.

Key:
Test in all cases: Viability of human cancer cell lines after 72 h of drug (GDSC screen)
CUDC-101 = compound: C#Cc1cccc(Nc2ncnc3cc(OC)c(OCCCCCCC(=O)NO)cc23)c1 [CUDC-101]; conditions: top dose 5.12 µM; top dose inferred
Procedure: (§1)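 Human cancer cell lines in 384-well plates, medium with 10% serum, drug for 72 h over a 256-fold dose range (nine 2-fold or five 4-fold steps up to the top dose). Adherent lines were fixed and stained with the nucleic acid dye Syto60, suspension lines read with resazurin; signal relative to control wells, capped at 0 and 100%. One two-parameter sigmoid per drug and line, fitted in a mixed model over all curves with the slope shared within a line.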

AC220 = compound: CC(C)(C)c1cc(NC(=O)Nc2ccc(-c3cn4c(n3)sc3cc(OCCN5CCOCC5)ccc34)cc2)no1 [AC220]; conditions: top dose 1.024 µM; top dose inferred
Procedure: as §1

RDEA119 = compound: COc1cc(F)c(F)c(Nc2ccc(I)cc2F)c1NS(=O)(=O)C1(C[C@H](O)CO)CC1 [RDEA119]; conditions: top dose 5 µM, top dose inferred
Procedure: as §1

JNK-9L = compound: Fc1cc(-c2ccnc(Nc3ccc(-n4cnc(N5CCOCC5)n4)cc3)n2)cc(N2CCOCC2)c1 [JNK-9L]; conditions: top dose 5.12 µM; top dose inferred
Procedure: as §1

OSU-03012 = compound: NCC(=O)Nc1ccc(-n2nc(C(F)(F)F)cc2-c2ccc3c(ccc4ccccc43)c2)cc1 [OSU-03012]; conditions: top dose 16 µM; top dose inferred
Procedure: as §1

5-Fluorouracil = compound: O=c1[nH]cc(F)c(=O)[nH]1 [5-Fluorouracil]; conditions: top dose 32 µM; top dose inferred
Procedure: as §1

QS11 = compound: OC[C@H](Cc1ccccc1)Nc1nc(Oc2ccc3c(c2)CCC3)nc2c1ncn2Cc1ccc(-c2ccccc2)cc1 [QS11]; conditions: top dose 10.24 µM
Procedure: as §1

Cell Line	AUC (CUDC-101)	IC50 (CUDC-101) [µM]	AUC (AC220)	IC50 (AC220) [µM]	AUC (RDEA119; screen: GDSC drug entry 1014)	IC50 (RDEA119; screen: GDSC drug entry 1014) [µM]	AUC (RDEA119; screen: GDSC drug entry 1526)	IC50 (RDEA119; screen: GDSC drug entry 1526) [µM]	AUC (JNK-9L)	IC50 (JNK-9L) [µM]	AUC (OSU-03012)	IC50 (OSU-03012) [µM]	AUC (5-Fluorouracil)	IC50 (5-Fluorouracil) [µM]	AUC (QS11)	IC50 (QS11) [µM]
HLE (liver, adherent)	0.478	0.28	0.989	> 1.02	0.943	> 5	0.919	> 5	0.531	0.388	0.68	3.09	0.909	> 32	0.84	6.48
HMV-II (melanoma, adherent)	0.623	0.753	0.959	> 1.02			0.539	0.409	0.369	0.128	0.658	3.03	0.854	> 32	0.797	6.12
HN (head and neck, adherent)	0.752	1.6	0.988	> 1.02	0.657	0.825	0.698	1.08	0.845	3.35	0.6	1.84	0.978	> 32	0.902	> 10.2
HO-1-N-1 (head and neck, adherent)	0.66	0.853	0.987	> 1.02			0.715	1.19	0.557	0.451	0.816	7.96	0.912	> 32	0.986	> 10.2
HO-1-u-1 (head and neck, adherent)	0.614	0.648	0.988	> 1.02	0.885	> 5	0.945	> 5	0.564	0.475	0.745	4.85	0.892	> 32	0.893	> 10.2
HOP-62 (lung adenocarcinoma, adherent)	0.532	0.392	0.985	> 1.02	0.699	1.13	0.757	1.72	0.471	0.267	0.527	1.18	0.681	6.38	0.727	2.82
HOS (osteosarcoma, adherent)	0.992	> 5.12	0.992	> 1.02	0.923	> 5	0.935	> 5	0.595	0.556	0.584	1.63	0.944	> 32	0.723	2.41
HPAC (pancreas, adherent)	0.624	0.808	0.979	> 1.02			0.867	> 5	0.678	1.24	0.665	3.48	0.797	22.7	0.757	4.93
HPAF-II (pancreas, adherent)	0.796	3.29	0.965	> 1.02			0.631	0.805	0.598	0.644	0.837	15.9	0.91	> 32	0.857	> 10.2
HT55 (large intestine, adherent)	0.7	1.17	0.99	> 1.02	0.784	2.12	0.841	3.44	0.903	> 5.12	0.782	6.64	0.984	> 32	0.99	> 10.2
HT (B-cell lymphoma, suspension)	0.295	0.0893	0.99	> 1.02	0.99	> 5	0.974	> 5	0.545	0.42	0.81	7.57	0.786	12.6	0.94	> 10.2
HT-3 (cervix, adherent)	0.635	0.758	0.973	> 1.02	0.839	3.49	0.878	> 5	0.48	0.282	0.816	9.07	0.874	> 32	0.911	> 10.2
HT-115 (large intestine, adherent)	0.702	1.12	0.97	> 1.02	0.821	2.57	0.86	3.6	0.764	1.7	0.914	> 16	0.98	> 32	0.991	> 10.2
HT-144 (melanoma, adherent)	0.981	> 5.12	0.975	> 1.02	0.289	0.0733	0.478	0.27	0.367	0.132	0.748	5.69	0.729	9.75	0.859	10.2
HT-1080 (fibrosarcoma, adherent)	0.708	1.15	0.989	> 1.02	0.591		0.743	1.41	0.481	0.286	0.543	1.29	0.967	> 32	0.817	4.98
